Test results reported in patent publication US20240209078A1 (Amgen, published 2024).

Legend:
Assay in all cases: cell-based or functional assay
[1] = target: T1, human MSLN (mesothelin) (human, UniProt Q13421 37-598)
[2] = target: T2, human CDH3 (Cadherin-3, P-Cadherin) (human, UniProt P22223 108-829)
[3] = target: T1, human MSLN (mesothelin); remark: listed apart in the source
[4] = target: T2, human CDH3 (Cadherin-3, P-Cadherin); remark: listed apart in the source
[5] = target: T1, human MSLN (mesothelin); remark: listed apart in the source
[6] = target: T2, human CDH3 (Cadherin-3, P-Cadherin); remark: listed apart in the source
[7] = target: T3, CD3ε chain (human, UniProt P07766 23-126, limits assumed)
[8] = target: T3, CD3ε chain; remark: listed apart in the source
T3 sequence (P07766 23-126 limits assumed): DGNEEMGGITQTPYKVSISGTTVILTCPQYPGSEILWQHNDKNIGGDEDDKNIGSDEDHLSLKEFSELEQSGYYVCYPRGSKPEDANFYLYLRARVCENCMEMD

[9] = target: human CDH3 (human, UniProt P22223 108-829)
[10] = target: human MSLN (human, UniProt Q13421 37-598)

B1: MS 15-B12 CC × I2L × G4 × scFc × G4 × CH3 15-E11 CC × I2L (bispecific antibody)
chain: QVQLQESGPGLVKPSETLSLTCTVSGGSISSSSYFWGWIRQPPGKCLEWIGNIYYSGSSNYNPSLKSRVTISVDTSKNQFSLKLSSVTAADTAVYYCARLPRGDRDAFDIWGQGTMVTVSSGGGGSGGGGSGGGGSDIVMTQSPSSLSASVGDRVTITCRASQGISNYLAWYQQKPGKVPKLLIYAASTLQSGVPSRFSGSGSGTDFTLTISSLQPEDFATYYCQQSYSTPFTFGCGTKVEIKSGGGGSEVQLVESGGGLVQPGGSLKLSCAASGFTFNKYAMNWVRQAPGKGMEWVARIRSKYNNYATYYADAVKDRFTISRDDSKNTLYLQMNNLKTEDTAVYYCVRAGNFGSSYISYFAYWGQGTLVTVSSGGGGSGGGGSGGGGSQTVVTQEPSLTVSPGGTVTITCGSSTGAVTSGNYPNWIQKKPGQAPRGLIGGTKFLAPGTPARFSGSLEGGKAALTLSGVQPEDEAEYYCVLYYSNRWVFGSGTKLTVLGGGG[sequence of human IgG1 Fc with R292C N297G V302C (EU numbers) omitted]GGGGSGGGGSGGGGSGGGGSGGGGSGGGGS[sequence of human IgG1 Fc with R292C N297G V302C (EU numbers) omitted]GGGGQVQLVQSGAEVKKPGASVKVSCKASGYTFTNYWMNWVRQAPGQCLEWMGNIAYGVKGTNYNQKFQGRVTMTVDTSSSTAYMELSRLRSDDTAVYYCATRYFYVMDYWGQGTLVTVSSGGGGSGGGGSGGGGSDIQMTQSPSSLSASVGDRVTITCRASQDISNYLNWYQQKPGKVPKLLIYYTSRLHSGVPSRFSGSGSGTDFTLTISSLQPEDVATYYCVQYAQFPLTFGCGTKVEIKSGGGGSEVQLVESGGGLVQPGGSLKLSCAASGFTFNKYAMNWVRQAPGKGMEWVARIRSKYNNYATYYADAVKDRFTISRDDSKNTLYLQMNNLKTEDTAVYYCVRAGNFGSSYISYFAYWGQGTLVTVSSGGGGSGGGGSGGGGSQTVVTQEPSLTVSPGGTVTITCGSSTGAVTSGNYPNWIQKKPGQAPRGLIGGTKFLAPGTPARFSGSLEGGKAALTLSGVQPEDEAEYYCVLYYSNRWVFGSGTKLTVL
cytotoxicity EC50, HCT 116 KO CDH3 cells [1]: 18.3 pM | cytotoxicity EC50, HCT 116 KO MSLN cells [2]: 1.1 pM | cytotoxicity EC50, GSU KO CDH3 cells [3]: 289 pM | cytotoxicity EC50, GSU KO MSLN cells [4]: 177 pM | cytotoxicity EC50, GSU KO CDH3 cells [5]: 339 pM | cytotoxicity EC50, GSU KO MSLN cells [6]: 256 pM

B2: CL1 9-G4 CC × 6H10.09 × scFc × FL 4-E9 CC × 6H10.09 (bispecific antibody)
chain: QVQLVQSGAEVKKPGASVKVSCKASGYTFTDYYMHWVRQAPGQCLEWMGWINPNSGGPNYAQKFQGRVTMTRDTSISTAHMELSRLRSDDTAVYYCAREKHAVAGIGFDYWGQGTLVTVSSGGGGSGGGGSGGGGSDIQMTQSPSSVSASVGDRVTITCQASQDISNYLNWYQQKPGKAPKLLIYAASSLESGVPSRFSGSGSGTDFTLTISSLQPEDFATYYCQQANSFPLTFGCGTKVDIKSGGGGSEVQLVESGGGLVQPGGSLKLSCAASGFTFNKYAMNWVRQAPGKGMEWVARIRSKYNNYATYYADAVKDRFTISRDDSKNTLYLQMNNLKTEDTAVYYCVRAGNFGSSYISYFAYWGQGTLVTVSSGGGGSGGGGSGGGGSQTVVTQEPSLTVSPGGTVTITCGSSTGAVTSGNYPNWIQKKPGQAPRGLIGGTKFLAPGTPARFSGSLEGGKAALTLSGVQPEDEAEYYCVLYYSNRWVFGSGTKLTVLGGGGSGGGGSGGGGS[sequence of human IgG1 Fc with R292C N297G V302C (EU numbers) omitted]GGGGSGGGGSGGGGSGGGGSGGGGSGGGGS[sequence of human IgG1 Fc with R292C N297G V302C (EU numbers) omitted]GGGGSGGGGSGGGGSQVTLKESGPTLVKPTETLTLTCTVSGFSFRNARMGVSWIRQPPGKCLEWLAHIFSNDEKSYSTSLKSRLTISKDTSKSQVVLTMTNMDPVDTATYFCARVPEYSSGWYRFDYWGQGTLVTVSSGGGGSGGGGSGGGGSDIQMTQSPSSLSASVGDRVTISCRASQSIRSYLNWYQQKPGKAPKLLIYATSSLQGGVPSRFSGSGSGTDFTLTISSLQPEDFATYYCQQSYSTPFTFGCGTKVEIKSGGGGSEVQLVESGGGLVQPGGSLKLSCAASGFTFNKYAMNWVRQAPGKGMEWVARIRSKYNNYATYYADAVKDRFTISRDDSKNTLYLQMNNLKTEDTAVYYCVRAGNFGSSYISYFAYWGQGTLVTVSSGGGGSGGGGSGGGGSQTVVTQEPSLTVSPGGTVTITCGSSTGAVTSGNYPNWIQKKPGQAPRGLIGGTKFLAPGTPARFSGSLEGGKAALTLSGVQPEDEAEYYCVLYYSNRWVFGSGTKLTVL
Activity reduction of single CD3 binding domain in molecule compared to high affinity binding domain I2C with KD 1.2E-08M [7]: ~98 fold | Activity reduction of single CD3-binding domain in molecule compared to high affinity CD3 binding domain I2C with KD of 1.2E-08M [8]: ~98 fold

B3: MS 01-G11 CC×6H10.09×(G4S)3×scFc×(G4S)3×CH3 005-D5 CC×6H10.09 (bispecific antibody)
chain: QVQLVESGGGLVKPGGSLRLSCAASGFTFSDYYMTWIRQAPGKCLEWLSYISSSGSTIYYAEAVKGRFTISRDNAKNSLFLQMNSLRAEDTAVYYCARDRNSHFDYWGQGTLVTVSSGGGGSGGGGSGGGGSDIMTQSPSSVSASVGDRVTITCRASQGIRTWLAWYQQKPGKAPKLLIYGASGLQSGVPSRFSGSGSGTDFTLTISSLQPEDFATYYCQQAESFPRTFGCGTKVEIKSGGGGSEVQLVESGGGLVQPGGSLKLSCAASGFTFNKYAMNWVRQAPGKGMEWVARIRSKYNNYATYYADAVKDRFTISRDDSKNTLYLQMNNLKTEDTAVYYCVRAGNFGSSYISYFAYWGQGTLVTVSSGGGGSGGGGSGGGGSQTVVTQEPSLTVSPGGTVTITCGSSTGAVTSGNYPNWIQKKPGQAPRGLIGGTKFLAPGTPARFSGSLEGGKAALTLSGVQPEDEAEYYCVLYYSNRWVFGSGTKLTVLGGGGSGGGGSGGGGS[sequence of human IgG1 Fc with R292C N297G V302C (EU numbers) omitted]GGGGSGGGGSGGGGSGGGGSGGGGSGGGGS[sequence of human IgG1 Fc with R292C N297G V302C (EU numbers) omitted]GGGGSGGGGSGGGGSEVQLLESGGGLVQPGGSLRLSCAASGFSFSSYPINWVRQAPGKCLEWVGVIWTGGGTNYASSVKGRFTISRDNSKNTVYLQMNSLRAEDTAVYYCAKSRGVYDFKGRGAMDYWGQGTLVTVSSGGGGSGGGGSGGGGSDIVMTQSPDSLAVSLGERATINCKSSQSLLYSSNQKNYFAWYQQKPGQPPKLLIYWASTRESGVPDRFSGSGSGTDFTLTISSLQAEDVAVYYCQQYYSYPYTFGCGTKLEIKSGGGGSEVQLVESGGGLVQPGGSLKLSCAASGFTFNKYAMNWVRQAPGKGMEWVARIRSKYNNYATYYADAVKDRFTISRDDSKNTLYLQMNNLKTEDTAVYYCVRAGNFGSSYISYFAYWGQGTLVTVSSGGGGSGGGGSGGGGSQTVVTQEPSLTVSPGGTVTITCGSSTGAVTSGNYPNWIQKKPGQAPRGLIGGTKFLAPGTPARFSGSLEGGKAALTLSGVQPEDEAEYYCVLYYSNRWVFGSGTKLTVL
EC50 CHO hu CDH3 (+) & MSLN (+) (cytotoxicity) [9]: 0.002 pM | EC50 CHO hu CDH3 (+) (cytotoxicity) [9]: 1.9 pM | fold gap, CHO hu CDH3 (+) against CHO hu CDH3 (+) & MSLN (+) [9]: 779 fold | EC50 CHO hu CDH3 (+) & MSLN (+) (cytotoxicity) [10]: 0.002 pM | EC50 CHO hu MSLN (+) (cytotoxicity) [10]: 2.05 pM

Where two headings read alike, the source gives them in different places.
